The list shows a part of the results. Single values are uncertain, as repeats are few or missing.
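Note: cells treated in 1,536-well plates, then fixed and DAPI-stained, with nuclei counted from automated high-throughput microscope images.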

This assay relates to A375. In words: cell count relative to DMSO control; melanoma cells; higher = more viable cells. Particulars: library dose: standard library concentration; 72 h.
For `CC(=O)O[C@@]12CO[C@@H]1C[C@H](O)[C@@]1(C)C(=O)[C@H](O)C3=C(C)[C@@H](OC(=O)[C@H](O)[C@@H](NC(=O)OC(C)(C)C)c4ccccc4)C[C@@](O)([C@@H](OC(=O)c4ccccc4)[C@H]21)C3(C)C` [Docetaxel] + Cn1c(=O)n(-c2ccc(C(C)(C)C#N)cc2)c2c3cc(-c4cnc5ccccc5c4)ccc3ncc21 [NVP-BEZ235] (first compound 0.0005 µM, partner dose 0.02 µM), the cell count came out at 78.7%.

Regarding `Nc1ncn([C@H]2C[C@H](O)[C@@H](CO)O2)c(=O)n1` [decitabine] + Nc1cccc2c1CN(C1CCC(=O)NC1=O)C2=O [lenalidomide] (first compound 0.5 µM, partner dose 5 µM), the cell count was 77%.

Take `CC(=O)O[C@@]12CO[C@@H]1C[C@H](O)[C@@]1(C)C(=O)[C@H](O)C3=C(C)[C@@H](OC(=O)[C@H](O)[C@@H](NC(=O)OC(C)(C)C)c4ccccc4)C[C@@](O)([C@@H](OC(=O)c4ccccc4)[C@H]21)C3(C)C` [Docetaxel] + Clc1ccc(Nc2nnc(Cc3ccncc3)c3ccccc23)cc1 [vatalanib] (first compound 0.0005 µM, partner dose 10 µM): the cell count was found to be 81.2%.

On to `CC(=O)O[C@@]12CO[C@@H]1C[C@H](O)[C@@]1(C)C(=O)[C@H](O)C3=C(C)[C@@H](OC(=O)[C@H](O)[C@@H](NC(=O)OC(C)(C)C)c4ccccc4)C[C@@](O)([C@@H](OC(=O)c4ccccc4)[C@H]21)C3(C)C` [Docetaxel] + C#Cc1cccc(Nc2ncnc3cc(OCCOC)c(OCCOC)cc23)c1 [erlotinib] (first compound 0.0005 µM, partner dose 4 µM), for which the cell count was 61.1%.

Take `CC(=O)c1c(C)c2cnc(Nc3ccc(N4CCNCC4)cn3)nc2n(C2CCCC2)c1=O` [palbociclib] + OCCn1cc(-c2cnc3nnn(Cc4ccc5ncccc5c4)c3n2)cn1 [PF04217903] (first compound 0.2 µM, partner dose 5 µM): the cell count is 66.4%.

`Nc1nc(F)nc2c1ncn2[C@@H]1O[C@H](CO)[C@@H](O)[C@@H]1O` [fludarabine] + CN(NC(=O)CC(=O)NN(C)C(=S)c1ccccc1)C(=S)c1ccccc1 [STA4783] (first compound 1 µM, partner dose 0.03 µM) came in with a cell count of 21.5%.

Compound `CC(=O)c1c(C)c2cnc(Nc3ccc(N4CCNCC4)cn3)nc2n(C2CCCC2)c1=O` [palbociclib] + C[C@]1(c2nc3c(C(N)=O)cccc3[nH]2)CCCN1 [Veliparib] (first compound 0.2 µM, partner dose 7 µM) had a cell count of 70.6%.

On to `CO[C@H]1C[C@@H]2CC[C@@H](C)[C@@](O)(O2)C(=O)C(=O)N2CCCC[C@H]2C(=O)O[C@H]([C@H](C)C[C@@H]2CC[C@@H](OCCO)[C@H](OC)C2)CC(=O)[C@H](C)/C=C(\C)[C@@H](O)[C@@H](OC)C(=O)[C@H](C)C[C@H](C)/C=C/C=C/C=C/1C` [everolimus] + Nc1nc(F)nc2c1ncn2[C@@H]1O[C@H](CO)[C@@H](O)[C@@H]1O [fludarabine] (first compound 0.1 µM, partner dose 1 µM), for which the cell count came out at 24.8%.

On to `Nc1nc(F)nc2c1ncn2[C@@H]1O[C@H](CO)[C@@H](O)[C@@H]1O` [fludarabine] + C[C@@H]1CCN(C(=O)CC#N)C[C@@H]1N(C)c1ncnc2[nH]ccc12 [CP690550] (first compound 1 µM, partner dose 5 µM), for which the cell count was 41.4%.

These data come from the supplement of paper PMC4604168 (melanoma cell lines).
